The campaign covered roughly 290,000 compounds. About 1,100 (0.38%) were called active. Inconclusive means that the source gave no clear call. Such entries were picked first, then a sample of the others. Calls come from the whole dose curve; as a rule, active = well fitted inhibition curve with a large enough effect; inconclusive = small, poorly fitted or top-dose-only effect, or another doubt; inactive = no such curve, though single readings can be large or run the other way. Potencies of inconclusive entries are doubtful fits and often do not repeat.
Target: Pyruvate kinase (Leishmania mexicana) (UniProt Q27686)
Sequence of UniProt Q27686 (Q27686 whole entry, looked up): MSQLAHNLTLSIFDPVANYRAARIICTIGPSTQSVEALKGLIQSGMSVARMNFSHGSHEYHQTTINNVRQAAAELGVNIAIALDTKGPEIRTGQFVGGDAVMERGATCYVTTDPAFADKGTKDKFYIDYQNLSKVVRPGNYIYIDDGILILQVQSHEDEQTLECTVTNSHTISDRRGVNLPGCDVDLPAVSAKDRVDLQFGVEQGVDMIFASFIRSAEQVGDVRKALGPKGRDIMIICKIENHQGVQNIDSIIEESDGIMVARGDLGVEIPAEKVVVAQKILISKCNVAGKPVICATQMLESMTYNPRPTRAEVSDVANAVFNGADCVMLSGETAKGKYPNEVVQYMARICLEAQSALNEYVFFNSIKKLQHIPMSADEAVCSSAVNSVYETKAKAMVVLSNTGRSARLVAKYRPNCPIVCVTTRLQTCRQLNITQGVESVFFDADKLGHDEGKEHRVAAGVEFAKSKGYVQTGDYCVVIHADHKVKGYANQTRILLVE
Experiment: qHTS Assay for Inhibitors of Leishmania Mexicana Pyruvate Kinase (LmPK)
Details: purified LmPK, Kinase-Glo ATP luminescence, 1 h; activity change, negative = inhibition: at 57.5 µM (top of the series) unless noted
Method in brief: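 Screened at intermediate enzyme activity to detect both inhibitors and activators: LmPK at 0.1 nM, with a 0.5 nM enzyme column as activation reference. PEP 0.5 mM, ADP 0.1 mM; ATP detected by luminescence after 1 h.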
% is set by controls: 0 for no effect and ±100 for the full control effect; potency is the fitted concentration of half-maximal effect; tags give direction and shape of the fitted curve.

Row | Structure (SMILES) | activity change, negative = inhibition | Potency
1 | COCc1c(C(=O)NC2CCCCCC2)oc2ccccc12 | inactive: -0.431% | –
2 | COc1cc(NC(=O)/C=C/c2ccccc2[N+](=O)[O-])cc(OC)c1 | inactive: -3.58% | –
3 | CCn1c(-c2c[nH]c3ccccc23)n[nH]c1=S | – | inconclusive: 31.6 µM [falling, single point]
4 | Cc1ccccc1-n1c(-c2ccco2)n[nH]c1=S | – | inconclusive: 22.4 µM [falling, single point]
5 | CCOc1ccc(NC(=O)C(C)Sc2nnc(C)n2C)cc1 (centres undefined) | inactive: -1.59% | –
6 | O=C(O)c1ccc(N/N=C/c2cccc(F)c2)cc1 | – | inconclusive: 15.8 µM [falling, partial curve]
7 | Cc1nc2sc(-c3ccccc3)cc2c(=O)[nH]1 | – | inconclusive: 14.1 µM [falling, partial curve]
8 | CCN(CC)C(=O)Nc1ccc(C(=O)OC)cc1 | inactive: 1.23% | –
9 | CCCCCn1nc(C)c(/C=N/NC(=O)c2ccoc2C)c1C | – | inconclusive: 14.1 µM [falling, partial curve]
10 | COc1ccc2c(c1)Sc1ccccc1N2 | inactive: -14% | –
11 | CCN(CC)c1ccc(N=C2C(=O)Nc3ccccc32)cc1 | – | inconclusive: 39.8 µM [falling, single point]
12 | Cc1csc(NC(=O)c2cnccn2)n1 | – | inconclusive: 28.2 µM [falling, partial curve]
13 | O=C(Nc1ccc(-c2nc3cccnc3s2)cc1)C1CCCO1 (centres undefined) | – | active: 14.1 µM
14 | CCOC(=O)/C(C#N)=C/c1ccc(OC(=O)c2ccccn2)cc1 | – | inconclusive: 31.6 µM [falling, single point]
15 | COc1ccc2[nH]c3c4c(ccc3c2c1)C(=O)C=CC4=O | – | inconclusive: 8.91 µM [falling, partial curve]
16 | CCN(CCN(C)C)C(=O)c1ccc2c(c1NCCO)C(=O)c1ccccc1C2=O | – | inconclusive: 31.6 µM [falling, single point]
17 | O=C(c1ccccc1)c1cc2ccc(O)cc2oc1=O | – | active: 3.55 µM

Row | Structure (SMILES) | activity change, negative = inhibition | Potency
18 | Cc1ccc(Nc2nc(NCCCN3CCOCC3)nc(N)c2[N+](=O)[O-])cc1 | inactive: 0.35% | –
19 | FC(F)(F)c1cc(-c2ccco2)nc(NCc2cccnc2)n1 | inactive: 8.03% | –
20 | CN1CC(C(=O)c2ccc(Cl)cc2)C(c2ccc(N(C)C)cc2)C1 (centres undefined) | inactive: 1.91% | –
21 | COc1ccc(Cn2c(-c3ccc(OC)cc3)n[nH]c2=S)cc1 | – | inconclusive: 28.2 µM [falling, single point]
22 | Oc1cc2c(cc1O)C1c3ccc(O)c(O)c3OCC1(O)C2 (centres undefined) | – | inconclusive: 8.91 µM [falling, partial curve]
23 | CCCCOc1ccc(C(=O)Nc2cccc(C)n2)cc1 | – | inconclusive: 14.1 µM [falling, partial curve]
24 | Cc1ccc(-n2nnc(-c3nccs3)n2)cc1 | – | active: 14.1 µM
25 | O=C(O)c1ccc2nc(-c3ccccc3)sc2c1 | – | inconclusive: 25.1 µM [falling, partial curve]
26 | S=c1[nH]nc(CSc2nc3ccccc3s2)n1Cc1ccccc1 | – | inconclusive: 39.8 µM [falling, single point]
27 | C=CCN1C(=O)/C(=C/c2ccc(Br)s2)C(=O)NC1=S | inactive: 27.4% | –
28 | Cc1ccc(-n2c(-c3cc(C)n(C)n3)n[nH]c2=S)cc1 | – | inconclusive: 8.91 µM [falling, partial curve]
29 | Cc1occc1C(=O)N/N=C/c1cccs1 | – | active: 14.1 µM
30 | COc1ccc(C(=O)Nc2cccc(OC)c2)cc1 | – | inconclusive: 5.01 µM [falling, single point]
31 | COc1ccc(S(=O)(=O)NCC2CCC(C(=O)O)CC2)cc1 (centres undefined) | inactive: 9.55% | –
32 | Cn1cccc1C(=O)NCCc1ccccc1 | – | inconclusive: 25.1 µM [falling, single point]
33 | O=C1/C(=C\c2ccc([N+](=O)[O-])cc2)CCc2ccccc21 | – | inconclusive: 11.2 µM [falling, partial curve]
34 | O=C(COc1ccc(F)cc1)NC1CC1 | inactive: -1.62% | –
